# Measurements published in PubChem BioAssay AID1745853 (National Center for Advancing Translational Sciences (NCATS), 2022).
# This is one part of the list. Shown are side measurements of this screen, not its main read-out; they come without a call.
# Tests used:
# Assay in all cases: Primary Screen for Target Class Profiling of Small Molecule Inhibitors of Methyltransferases
# [1] = target: Glycine N-methyltransferase (Homo sapiens) (UniProt Q14749); conditions: purified enzyme, MTase-Glo SAH luminescence; measured here: GNMT inhibition; at 40 µM; stronger effect = lower value
# How it was run: (§1)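 Each enzyme was reacted with SAM and its substrate, with compounds tested once at 40 uM; SAH formed was read by MTase-Glo luminescence.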
# [2] = target: Guanidinoacetate N-methyltransferase (Homo sapiens) (UniProt Q14353); conditions: purified enzyme, MTase-Glo SAH luminescence; measured here: GAMT inhibition; at 40 µM; stronger effect = lower value
# How it was run: as §1
# [3] = target: Histamine N-methyltransferase (Homo sapiens) (UniProt P50135); conditions: purified enzyme, MTase-Glo SAH luminescence; measured here: HNMT inhibition; at 40 µM; stronger effect = lower value
# How it was run: as §1
# [4] = target: Nicotinamide N-methyltransferase (Homo sapiens) (UniProt P40261); conditions: purified enzyme, MTase-Glo SAH luminescence; measured here: NNMT inhibition; at 40 µM; stronger effect = lower value
# How it was run: as §1
# [5] = target: Phenylethanolamine N-methyltransferase (Homo sapiens) (UniProt P11086); conditions: purified enzyme, MTase-Glo SAH luminescence; measured here: PNMT inhibition; at 40 µM; stronger effect = lower value
# How it was run: as §1
# % is scaled to controls: 0 for no effect and ±100 for the full control effect.
Structure (SMILES),"activity change, negative = inhibition [1]","activity change, negative = inhibition [2]","activity change, negative = inhibition [3]","activity change, negative = inhibition [4]","activity change, negative = inhibition [5]"
COc1ccc(-c2cc3n(n2)CC(C)(C(=O)NCc2ccccc2OC)N(C2CC2)C3=O)cc1 (stereo not given),-2.29%,0.404%,3.4%,3.75%,-0.525%
O=C(NCc1ccc(S(=O)(=O)c2cc(F)cc(F)c2)cc1)c1ccc2nccn2c1,-0.567%,-1.06%,6.04%,-21.1%,-9.09%
Cc1ccc(C)c(NC(=O)N2CCn3c(C)ccc3C2C(C)C)c1 (stereo not given),1.7%,0%,-2.73%,-7.79%,-1.54%
CC(c1cccs1)N(C)Cc1ccc(C(F)(F)F)cc1 (stereo not given),-2.89%,-0.405%,-0.932%,-0.102%,11%
Cc1cc(C)n(CCc2c(-c3ccccc3)ncn2C(C)CCCC(C)(C)O)n1 (stereo not given),-6.79%,-7.15%,-3.29%,-11%,1.04%
O=C(CCC1CCCN(S(=O)(=O)c2ccccc2)C1)NCCCN1CCCC1=O (stereo not given),2.66%,5.35%,1%,-1.69%,-0.818%
O=C(NC1CCCCC1)c1ccc2c(=O)nc3c(-c4ccc(Cl)cc4)n[nH]n3c2c1,-0.978%,1.31%,5.54%,4.46%,1.81%
CCc1ccc(CN2CCN(c3ccc(C(N)=O)cn3)CC2)nc1,-7.35%,-6.22%,-4.46%,-41.7%,-7.77%
CC(NC(=O)c1cc2n(n1)CC(C)(C(=O)NC1CCCCC1)N(C)C2=O)c1ccccc1 (stereo not given),4.66%,0%,2.35%,6.71%,2.31%
CC(C)Cn1c(=O)c2ccc(C(=O)NC(C)C)cc2n2c(SCC(=O)NC(C)(C)C)nnc12,-7.46%,0%,-0.169%,-1.83%,-6.34%
CC(C)CNC(=O)c1ccc2c(=O)n(CC(C)C)c3nn(Cc4ccccc4)c(=O)n3c2c1,-0.984%,4.53%,-1.01%,0.245%,0.097%
Cc1cc(CNC(=O)c2cc(C(=O)NCc3ccc(F)c(C)c3)ncn2)ccc1F,0.288%,-4.49%,13%,-12%,-3.22%
Cc1nc(-c2ccc(F)cc2)n(Cc2ccc(F)c(F)c2)c(=O)c1CCO,-3.62%,1.76%,3.4%,-11.8%,-2.23%
Cc1cc(C(=O)N2C[C@@H](COCC3CC3)[C@H](c3ccccn3)C2)n[nH]1,-3.38%,0.719%,1.85%,-5.38%,10.3%
COc1cc2c(cc1O)C1(OC)Cc3ccc4c(c3C1N(C)CC2)OCO4 (stereo not given),0.392%,1.51%,6.09%,-12.5%,-5.3%
CC(C)(C)c1nn2c(SCC(=O)Nc3ccc(F)cc3)nnc2[nH]c1=O,-3%,8.29%,-4.76%,-10.8%,-6.41%
O=C(c1ccccc1)N1CCC2(CC1)C(=O)NN=C2c1ccccn1,-6.2%,-5.71%,-2.19%,-15.8%,-3.35%
Cc1cc(OCc2nc(-c3ccccc3Cl)cs2)ccc1OCC(=O)O,-18.8%,-9.67%,6.64%,-34.2%,-1.65%
